From publication PMC4336329 (PLoS ONE, 2015)
About 2,200 (0.71%) of roughly 310,000 compounds showed an effect of 50% or more. Effects have a minus sign here. The list shows a part of the results.

molecular target: human ether-à-go-go-related gene (hERG) potassium channel (human, UniProt Q12809); assay: primary screen, population patch clamp on CHO cells stably expressing hERG
Sequence (Q12809 whole entry, looked up): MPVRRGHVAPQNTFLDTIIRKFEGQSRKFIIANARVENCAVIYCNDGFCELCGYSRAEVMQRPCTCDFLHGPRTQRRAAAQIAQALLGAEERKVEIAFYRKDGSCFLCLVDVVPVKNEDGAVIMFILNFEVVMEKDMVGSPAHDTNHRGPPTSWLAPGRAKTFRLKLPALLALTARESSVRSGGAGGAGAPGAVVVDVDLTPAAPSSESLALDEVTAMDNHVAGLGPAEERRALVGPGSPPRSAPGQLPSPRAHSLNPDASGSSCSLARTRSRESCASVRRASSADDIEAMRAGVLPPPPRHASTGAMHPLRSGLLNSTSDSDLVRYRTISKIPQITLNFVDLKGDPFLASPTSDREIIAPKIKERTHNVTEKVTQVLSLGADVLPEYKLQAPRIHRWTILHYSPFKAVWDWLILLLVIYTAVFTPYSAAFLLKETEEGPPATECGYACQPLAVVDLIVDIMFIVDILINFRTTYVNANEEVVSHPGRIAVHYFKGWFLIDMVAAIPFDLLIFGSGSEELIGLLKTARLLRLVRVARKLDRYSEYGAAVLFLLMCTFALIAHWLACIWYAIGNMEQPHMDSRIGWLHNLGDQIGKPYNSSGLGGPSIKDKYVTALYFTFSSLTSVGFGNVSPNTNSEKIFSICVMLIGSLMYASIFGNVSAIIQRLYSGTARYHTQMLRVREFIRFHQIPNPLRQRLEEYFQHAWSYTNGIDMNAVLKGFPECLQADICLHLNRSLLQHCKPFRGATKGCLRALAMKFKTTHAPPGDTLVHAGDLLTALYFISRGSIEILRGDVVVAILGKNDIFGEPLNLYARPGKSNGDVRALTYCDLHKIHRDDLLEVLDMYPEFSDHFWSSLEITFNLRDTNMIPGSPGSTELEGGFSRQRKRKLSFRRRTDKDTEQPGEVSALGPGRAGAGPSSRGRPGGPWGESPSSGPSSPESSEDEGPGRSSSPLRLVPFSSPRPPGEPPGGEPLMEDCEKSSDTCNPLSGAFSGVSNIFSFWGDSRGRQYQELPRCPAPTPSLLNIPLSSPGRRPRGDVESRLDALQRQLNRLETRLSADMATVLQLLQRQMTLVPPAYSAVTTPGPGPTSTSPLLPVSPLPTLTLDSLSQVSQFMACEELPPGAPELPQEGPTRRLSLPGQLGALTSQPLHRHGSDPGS

Row | SMILES | hERG current change (%, negative = inhibition) at 1uM
1 | Cc1cs/c(=N/C(=S)Nc2ccccc2)n1C | 36.5%
2 | Cc1ccc(CSc2nnc(-c3cccc(S(=O)(=O)N4CCOCC4)c3)n2CC(C)C)cc1 | -5.39%
3 | CN(C)CCNC(=O)CN1C(=O)COc2ccc(C(C)(C)C)cc21 | 6.42%
4 | Cc1cc(C)cc(N(CCC#N)C(=O)COC(=O)c2ccccc2SCC(=O)N2CCCC2)c1 | -1.61%
5 | Cc1ccc2nc(SCC(=O)Nc3c(F)cccc3F)[nH]c2c1 | 0.495%
6 | O=C(O)c1ccc(NS(=O)(=O)c2ccc(N3CCCC3)c([N+](=O)[O-])c2)cc1 | 12.9%
7 | O=C(NCc1csc(-c2cccs2)n1)C1CCCCC1 | 4.73%
8 | O=C(COc1ccc(-c2ccccc2)cc1)NNC(=O)Nc1ccc(F)cc1F | 17.9%
9 | COc1ccc(Br)c(OC)c1C(=O)NC(=O)Nc1c(F)cccc1F | 8.43%
10 | O=Cc1ccc(C(=O)OCC(=O)NCCC2=CCCCC2)cc1 | -2.71%
11 | CN(C)C(N)=NCCC[C@H](N)C(=O)O.Cl | 14.8%
12 | CN(C)C=Nc1nc2ccccc2nc1N1CCCC1 | 8.7%
13 | CSc1ccc(S(=O)(=O)NCC(=O)OCC(=O)N(C)Cc2ccccc2)cc1[N+](=O)[O-] | 10.3%
14 | CCOc1ccc(NS(=O)(=O)c2ccc(C(=O)NCc3ccccn3)cc2)cc1 | 2.6%
15 | O=C1CCCC2=C1C1(CCCCC1)N=C(Nc1nc3ccccc3o1)N2 | 6.53%
16 | Cc1ccc2[nH]cc(C(=O)CN3CCN(C)CC3)c2c1 | 6.76%
17 | CCc1cc(=O)oc2c3c(cc(OCC(=O)NCc4ccco4)c12)OC(C)(C)CC3 | -4.95%
18 | Cc1oc(-c2cccc(Cl)c2)nc1CS(=O)(=O)CC(=O)NCCN1CCCC1 | 11.8%
19 | CN(Cc1ccccc1)C1=CC(=[N+]2CCCCC2)CC(C)(C)C1.[I-] | -9.29%
20 | O=C1NC(=O)N(Cc2ccc(F)cc2)C(=O)/C1=C/c1cccs1 | 15.8%
21 | O=Cc1c(Cl)cccc1Cl | 12.8%
22 | CCOC(=O)c1[nH]c2ccc(F)cc2c1N=C(C)N(CC)CC | -25.9%
23 | O=C(NCc1ccco1)C1CC(=O)N(CCc2ccccc2)C1 (stereo not drawn) | 13.5%

Row | SMILES | hERG current change (%, negative = inhibition) at 1uM
24 | O=C(NC1CC1)c1cccc(Nc2ccc(-c3ccc4c(c3)OCCO4)nn2)c1 | 2.92%
25 | COC(=O)CC1C(=O)NCCN1C(=O)CSc1nc2cc(Cl)ccc2o1 (stereo not drawn) | 8.71%
26 | CCCCNC(=S)N(C)/N=C/c1ccc2c(c1)OCO2 | 12.7%
27 | Cc1ccc(S(=O)(=O)N(C)c2ccc(C(=O)Nc3ccccn3)cc2)cc1 | 19.4%
28 | COC(=O)C1CC(=O)c2sccc2C1 (stereo not drawn) | 11.2%
29 | Cc1ccc(O)c(C(=O)c2cnc3c(c2)CN(C)C(=O)N3)c1 | 9.48%
30 | Cc1ccc(CNC(=O)CCC(=O)Nc2nnc(C3CCCCC3)s2)cc1 | 11.6%
31 | CCOC(=O)Cc1nc(-c2cccc(C(F)(F)F)c2)no1 | 3.32%
32 | C[C@@H](C[C@@H](O)[C@H](O)C(C)(C)O)[C@@H]1CC[C@]2(C)C3=CC[C@H]4C(C)(C)C(=O)CC[C@]4(C)[C@H]3CC[C@@]12C | 14.2%
33 | COC(=O)c1ccccc1S(=O)(=O)N1CCC(C(=O)NCc2ccco2)CC1 | 4.79%
34 | Cc1ccc(C2CC(c3cccc(C)c3)n3nc(N)nc3N2)cc1 (stereo not drawn) | -10.1%
35 | CCCCCOc1ccc(NC(=O)C2OC3OC(C)(C)OC3C3OC(C)(C)OC23)cc1 (stereo not drawn) | 8.45%
36 | COc1ccc(C2=NS(=O)(=O)N(C)C(C(=O)Nc3ccc4c(c3)OCO4)=C2)cc1OC | 15.9%
37 | O=[N+]([O-])c1ccc(CN2CC=C(c3ccccc3)CC2)cc1 | 7.24%
38 | C=CCn1c(SCC(=O)NCc2ccc3c(c2)OCO3)nc2scc(-c3ccccc3)c2c1=O | 7.85%
39 | O=C(NCc1ccc(F)cc1)c1cnn2ccccc12 | 12.4%
40 | CS(=O)(=O)c1ccc2nc(NC(=O)c3cc4ccccc4o3)sc2c1 | 4.97%
41 | Cc1cc(C)nc(NC(=O)c2cc(-c3ccc(C)s3)nc3ccccc23)c1 | 9.29%
42 | COc1cccc(C(=O)NNS(=O)(=O)c2ccc(F)cc2)c1 | 14.2%
43 | O=C(Cc1ccc2c(c1)CCCC2)Nc1ccccc1Cl | 7.42%
44 | CCOc1ccc(Cl)cc1S(=O)(=O)N1CCCC1 | 2.73%
45 | COc1ccc(-n2c(=O)cc(N3CCN(c4ccccc4OC)CC3)[nH]c2=O)cc1 | 5.29%
46 | Cc1ccc(C(=O)N2c3ccccc3N(Cc3ccccc3)C(=O)C2(C)C)cc1 | 4.69%

Row | SMILES | hERG current change (%, negative = inhibition) at 1uM
47 | N#C/C(=C\c1c[nH]c2ccccc12)C(=O)NC1CCCC1 | 6.43%
48 | CC(=O)C1=C(C)NC(=O)NC1c1cccs1 (stereo not drawn) | 18.6%
49 | Cc1nn(Cc2ccccc2Cl)c(C)c1C(=O)NC1=NCCS1 | 15.5%
50 | COCCN(C(=O)c1csnn1)C(C(=O)NC1CCCCC1)c1ccc(C)cc1 (stereo not drawn) | 6.61%
51 | N#CCc1ccc(OC(=O)c2ccncc2)cc1 | 10.2%
52 | CSCCC(NS(=O)(=O)c1ccccc1F)C(=O)N1CCCCCC1 (stereo not drawn) | 4.92%
53 | Cc1nc2c(C)cccc2cc1C(=O)N/N=C/c1cccnc1 | 11.1%
54 | COCC1CCN(C(=O)c2ccc3oc(Cc4ccc(Cl)cc4)nc3c2)C1 (stereo not drawn) | 10.6%
55 | O=C(CCSc1ccccc1)NCc1cccnc1 | 4.47%
56 | O=C(O)C1CCN(C(=O)c2csc(-c3ccc4c(c3)CCO4)n2)CC1 | 10.6%
57 | CCCn1nnnc1NCc1ccc(Cl)cc1Cl | 9.92%
58 | Cc1c(CCC(=O)NCCCn2ccnc2)c(=O)oc2cc3occ(C(C)(C)C)c3cc12 | 2.05%
59 | COCCn1c(=O)[nH]c2cc(C(=O)NCCN3CCN(c4ccccc4)CC3)ccc2c1=O | 9.82%
60 | CCN1CC(C)C(O)(c2ccccc2)CC1C (stereo not drawn) | 13.4%
61 | CN1N=C2c3ccccc3CCC2C1c1ccc(C(F)(F)F)cc1 (stereo not drawn) | 7.61%
62 | Cc1cc2c(s1)c1cnn(Cc3ccccc3F)c(=O)c1n2C | 12.7%
63 | CC(C)Cc1ccc(C(C)C(=N)N)cc1.Cl (stereo not drawn) | 10.2%
64 | NC(=O)c1ccc(NC(=O)CSc2nnc(-c3ccccn3)n2N)cc1 | 9.92%
65 | Cn1c(=O)c2[nH]c(NCC3CCCO3)nc2n(-c2ccccc2)c1=O (stereo not drawn) | 2.16%
66 | Oc1ccc(Cl)c(Cl)c1Cl | 12.6%
67 | COc1ccc([C@H]2CC(=O)C=C(c3ccc4c(c3)sc3ccccc34)C2)cc1 | 14.1%
68 | CC(C)CCN1CCN(Cc2ccc(C(F)(F)F)cc2)CC1CCO (stereo not drawn) | -31.6%
69 | Cn1c(CCCOc2ccc(Cl)cc2Cl)nnc1SCC(=O)Nc1cccc(F)c1 | 1.11%

Row | SMILES | hERG current change (%, negative = inhibition) at 1uM
70 | Cc1cccc(NC(=O)Cc2ccc(Br)cc2)n1 | 14%
71 | Cc1ccc2nc(NC(=O)CN(C)S(=O)(=O)c3ccc(Br)s3)sc2c1 | 4.93%
72 | CCCCN(C(=O)c1cccc(S(=O)(=O)N2CCOCC2)c1)c1c(N)n(CCC)c(=O)[nH]c1=O | 8.35%
73 | Nc1nonc1-c1nc2ccccc2n1CC(=O)N/N=C\c1ccc(-c2ccc(Cl)cc2)o1 | 14.5%
74 | O=C(CCSc1ccc(Cl)cc1)NC1CCCCC1 | 6.23%
75 | Cc1ccc(SCC(=O)Nc2ccc(N3CCN(C)CC3)c(F)c2)c(C)c1 | -47.8%
76 | Cc1cc(N(CN2CCCC2=O)C(=O)c2ccccc2)no1 | 14.9%
77 | CC(C)CCn1c(S(=O)(=O)O)nc2ccccc21 | 8.63%
78 | CC1CCc2sc3nc(N4CCN(CCO)CC4)n4ncnc4c3c2C1 (stereo not drawn) | 4.17%
79 | C=CCOc1cc(OC)c(OC)c(OC)c1 | 11.1%
80 | O=C(c1cc2ccccc2o1)N1CCCC1 | 15.7%
81 | CN=C1S/C(=C\c2ccc(Cl)cc2)C(=O)N1C | 18%
82 | Br.COc1ccccc1Nc1nc(-c2cccc([N+](=O)[O-])c2)cs1 | 8.73%
83 | Cc1nc2ccccn2c1C(=O)C(=O)Nc1cc(F)ccc1F | 7.32%
84 | CC1(c2ccc([N+](=O)[O-])cc2)NC(=O)N(CC(=O)Nc2cccnc2Cl)C1=O (stereo not drawn) | -1.41%
85 | Cc1ccc(CC2S/C(=C(/C#N)C(=O)N3CCOCC3)N(c3ccccc3)C2=O)cc1 (stereo not drawn) | 2%
86 | Cc1c(C)c2c(c(C)c1O)CCC(C)(C(=O)O)O2 (stereo not drawn) | 15.8%
87 | CC(C)c1cc(NCc2ccccn2)n2c(nc3ccccc32)c1C#N | 6.78%
88 | COc1ccc(CC(=O)Oc2ccc(Cl)cc2Br)cc1S(=O)(=O)N1CCOCC1 | 14.4%
89 | O=C(Oc1ccc(/C=N/NC(=O)c2ccccn2)cc1)c1cccc(F)c1 | 4.98%
90 | CC(=O)N1c2ccc3ccccc3c2C2C=CCC2C1c1ccc(Br)cc1 (stereo not drawn) | 10.9%
